This note sets out measurements from PubChem BioAssay (NCI).

For this assay, the system named is NCI-H322M lung. The assay is described as follows: inhibition of tumour cell growth, NCI panel, 48 h.

Each structure is given as a SMILES string. “And” between values parts separate entries of the source, which are not always exact repeats. Equal values may be shown once.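 Values below derive from 48-hour exposures of cells grown in 96-well plates, with endpoints linearly interpolated between the two concentrations bracketing the appropriate inhibition level. GI50: concentration for 50% inhibition of growth. The concentration for full growth arrest is given as TGI.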

The molecule `CC1=NN(C(=O)c2ccc(Cl)cc2)C(=O)/C1=C/c1cccc(O)c1` displayed a TGI of more than 100 µM. Same read-out and setting: under `COC(=O)c1ccccc1CC1Cc2cc3c(cc2C1)CCC3` stands more than 100 µM.

As for `COc1cc(/C=C2\NC(=O)N(/C=C3\C(=O)Oc4ccccc4C3=O)C2=O)ccc1O`, the TGI is more than 100 µM.

`COC(=O)[C@]1(c2cc3ccccc3[nH]2)CC2CN(CC(=O)N(C)OC)C1C1OC(C)(C)OC21` (some centres undefined) yielded a TGI of more than 100 µM. On to `COc1cc(CNC(=O)CCCCCCCC/C=C/Br)ccc1O`, for which the TGI is more than 10 µM.

`CCOC(=O)Cn1nc2ccc(Nc3nc4ccccc4nc3C(=O)OCC)cc2n1` had a TGI of more than 100 µM. `COc1cc2c(cc1OC)-c1c(cc(OC)c(OC)c1OC)C2=O`: the TGI is more than 100 µM. Turning to `Cc1cc(NC(=O)CCc2ccc(N3C(N)=NC(N)=NC3(C)C)cc2)ccc1S(=O)(=O)F`, the GI50 was 30 µM and the TGI was more than 100 µM. For `COc1cc2cc(C(=O)O)[nH]c2cc1OCc1ccccc1` the same measures were more than 100 µM and more than 100 µM. For `NC1=C(c2nc(-c3cc4ccccc4oc3=O)cs2)C(c2ccco2)c2c(c3ccccc3oc2=O)O1` (centres undefined) the same measures were more than 150 µg/mL and more than 150 µg/mL. For `O=C(c1cccs1)c1c(C(F)(F)F)n([O-])c2cc(F)c(F)cc2[n+]1=O` the same measures were 3.69 µM and 9.65 µM. `CNC(=O)OCc1nc(S(C)=O)n(C)c1COC(=O)NC` (centres undefined) displayed a TGI of more than 100 µM.

`COc1cc2c(cc1OC)-c1cc3ccccc3c(=O)n1CCC2` returned a TGI of 52.6 µM. Take `COc1ccc2cc(C(=O)/C=C/c3ccc(OC)c(OC)c3)ccc2c1`: the GI50 is 37.3 µM and the TGI is 78 µM. In the case of `C[C@]12CC[C@H]3[C@@H](C[C@@H]4SC(Nc5cccc(F)c5)=N[C@@]45CC(=O)CC[C@]35C)[C@@H]1CCC2=O`, the GI50 was 3.6 µM and the TGI turned out to be 28.9 µM. For `CCN(C)S(=O)(=O)Nc1cccc(Nc2ncnc3cc(NC(=O)CCl)ccc23)c1Cl` the same measures were 9.6 µM and more than 25 µM. For `CC(C)(C)SC1=CCC[C@@H](P(=O)(c2ccccc2)c2ccccc2)[C@@H]2CCC[C@@H]12`, the TGI stood at 32 µM. The same measure, in the same setting: next, `COc1ccc(-c2nc3ccc(C)cc3o2)c(OC)c1`: more than 84.6 µM.

In the case of `C[C@]12CC[C@@H]3c4ccc(O)cc4CC[C@H]3[C@@H]1CC[C@@H]2NS(=O)(=O)c1cccc(Br)c1`, the GI50 was 6.56 µM and the TGI turned out to be 19.8 µM. For `N#CC1=C(N)Oc2c(sc3c(F)cccc23)C1c1ccc([N+](=O)[O-])cc1` (centres undefined) the same measures were 0.503 µM and 2.01 µM.

The molecule `Nc1nc(Cl)c2ncn(Cc3ccccc3CCl)c2n1` displayed a TGI of 29.4 µM. Regarding `N#Cc1cccc(Nc2nccc(-c3cnn4ncccc34)n2)c1`, the GI50 is 0.00973 µM and the TGI is more than 25 µM.

`O=C1C(Nc2ccccn2)=C(I)C(=O)c2ncccc21`: the GI50 was 1.44 µM and the TGI worked out at 2.75 µM.

With `CCN(CC)CC(C)(C)C(=O)/C=C/c1ccc(C)cc1`, the TGI was determined as 16.6 µM. `CC/C(=C(\c1ccc(O)cc1)c1ccc(OCCNC)cc1)c1ccccc1`: the GI50 is 2.7 µM and 2.07 µM and 2.59 µM; the TGI was 7.38 µM and 4.94 µM and 7.56 µM.

In turn, `CN1N=C(c2ccncc2)OC1c1ccc(Cl)c(Cl)c1` (centres undefined) displayed a TGI of more than 100 µM. Same read-out and setting: under `O=C1OC(=O)C2C3CCC(O3)C12` (centres undefined) stands more than 100 µM. As to `COC(=O)c1c2c(c(C)[n+]([O-])c1C)C(=O)C(NCc1ccc(F)c(Cl)c1)=CC2=O`, the GI50 is 1.88 µM and the TGI came to 6.35 µM. Take `Nc1nc(Cl)cc(Nc2ccc3c(c2)CCC3)n1`: the TGI is more than 100 µM. In turn, `O=C1CCC(=O)c2cc(Br)ccc2N1` came in with a TGI of more than 100 µM. As for `CC(=O)O[C@H]1CCC2[C@@H]3CCC4C(=O)c5oncc5C[C@]4(C)C3CC[C@@]21C` (some centres undefined), the TGI is more than 100 µM. `C=CCCCC1(C)CCCCNC1=O` (centres undefined) gave a TGI of more than 10 µM.

As to `CC1=COC2=C(C)C(=O)C(=O)c3c(C)ccc1c32`, the TGI amounted to 9.84 µM. On the same count and under the same terms, under `Cc1[nH]n(-c2ccccc2)c(=S)c1C(=O)c1ccccc1` stands more than 100 µM; under `COc1ccc(/C=N/NC(=O)O)cc1`, more than 100 µM; under `COC(=O)C1=NN2c3ccccc3CN([C@@H](C)c3ccccc3)C(=O)[C@@H]2C1`, more than 100 µM. In turn, `CCC(C)(C)NC1=C(NC(C)=O)C(=O)c2ccccc2C1=O` returned a TGI of more than 75 µM. Still for that read-out and setting: next, `CCCCCCCCCCCCCCCCCCNc1ccn(C2OC(CO)C(OP(=O)(O)OCC3CCC(n4ccc(N)nc4=O)O3)C2O)c(=O)n1` (centres undefined): more than 100 µM; `CC(NC1CCC[C@H]1O)c1ccccc1` (mixture of isomers): more than 100 µM. Same read-out and setting: under `CCC12C=CCN3CC[C@]4(C(=C(C(=O)OC)[C@@H]1Nc1ccn(C5OC(COC(C)=O)C(OC(C)=O)C5OC(C)=O)c(=O)n1)Nc1ccccc14)C32` (some centres undefined) stands 10.2 µM; under `CC(=O)OCCn1c(Cc2ccc([N+](=O)[O-])cc2)nn(C(C)=O)c1=O`, more than 100 µM; under `CC1C(c2ccccc2O)c2cc3c(cc2OC1N1CCCC1)OCO3` (centres undefined), more than 100 µM. Same read-out and setting: under `CC(C)NC(C)Cc1ccccc1` (centres undefined) stands more than 100 µM. `O=[N+]([O-])C(=C1Nc2ccccc2N1)C(Cl)=C(Cl)Cl`: the TGI was more than 100 µM. Turning to `O=C1/C(=C\c2ccccc2)c2ccccc2N1Cc1ccccc1`, the TGI was determined as 16.6 µM. Consider `O=[N+]([O-])c1ccc(N(CCO)CCO)c2c1no[n+]2[O-]`, for which the GI50 is 2.39 µM and the TGI stood at 10.7 µM. The molecule `Cc1ccc(NC(=O)SCCC(=O)O)cc1NC(=O)SCCC(=O)O` returned a TGI of more than 100 µM.

Turning to `COc1cc2cc(C(=O)N3CC(COS(C)(=O)=O)c4c3cc([N+](=O)[O-])c3ccccc43)[nH]c2c(OC)c1OC` (centres undefined), the TGI is more than 100 µM.

In turn, `CC(C)(C)C1CCC2c3c([nH]c4ccccc34)C3C(=O)N(c4ccc(Br)cc4)C(=O)C3C2C1` (centres undefined) yielded a TGI of more than 100 µM. In the case of `Cc1ccc(S(=O)(=O)C2=c3ncccc3=C3C(=O)c4ccccc4C(=O)C32)cc1` (centres undefined), the TGI is more than 100 µM. `O=[N+]([O-])c1cc(Cl)ccc1S(=O)(=O)c1ccccc1`: the TGI is more than 100 µM. `C=C1CC(OC)(C(O)C(=O)N[C@H]2OCO[C@H]3C2O[C@H](C[C@@H](CO)OC)C(C)(C)C3OC)O[C@H](C)[C@@H]1C` (some centres undefined) registered a TGI of less than 0.00932 µM. The molecule `CCOc1ccc(N=Cc2cc(OC)c(OC)c(OC)c2)cc1` returned a TGI of more than 100 µM. Consider `COc1cc(Cn2c3c(c4cc(O)ccc42)C(=O)c2ccccc2C3=O)cc(OC)c1`, for which the TGI was more than 100 µM. On the same count and under the same terms, under `c1ccc(C2CC(N3CCOCC3)=Nc3ccccc3N2)cc1` (centres undefined) stands more than 100 µM. On to `Cc1ccc(C(=O)/C=C/c2ccccc2Cl)cc1`, for which the TGI turned out to be 83.3 µM.

On to `CCOC(=O)c1cc(C(=O)c2cc(OC)cc(OC)c2)n2ncccc12`, for which the GI50 was 8.32 µM and the TGI was more than 100 µM. Consider `CNC(Cc1ccccc1)c1cccc(OC)c1O` (centres undefined), for which the TGI was more than 100 µM. Regarding `O=S(=O)(Nc1ccc(Cl)c(C(F)(F)F)c1)c1ccc(-c2cnc(C3CC3)o2)cc1`, the GI50 was 1.63 µM and the TGI is 8.91 µM. For `Cc1cc(N2CCN(C)CC2)nc(NC2CCCC(Nc3ccnc4cc(Cl)ccc34)C2)n1` (centres undefined) the same measures were 2.11 µM and 6.64 µM. On to `CC(=O)Oc1ccc(-c2cc3ccccc3oc2=O)cc1OC(C)=O`, for which the TGI is more than 100 µM.

Molecule `C=C1CC2(OC1=O)c1ccccc1CCc1ccccc12` displayed a TGI of 30.1 µM.

Take `CN/N=C(\C)CC(=O)Nc1cccc(Cl)c1C`: the TGI was more than 100 µM.

Consider `C=CCSc1n[nH]c(-c2cccs2)n1`, for which the GI50 is more than 100 µM and the TGI is more than 100 µM.

`O=C(C#Cc1c[nH]c(=O)[nH]c1=O)c1ccccc1`: the TGI was determined as 28.7 µM.

Molecule `COC(=O)C(Cc1ccccc1)NS(=O)(=O)c1ccc(-c2c3nc(c(-c4ccc(S(=O)(=O)NC(Cc5ccccc5)C(=O)OC)cc4)c4ccc([nH]4)c(-c4ccc(S(=O)(=O)NC(Cc5ccccc5)C(=O)OC)cc4)c4nc(c(-c5ccc(S(=O)(=O)NC(Cc6ccccc6)C(=O)OC)cc5)c5ccc2[nH]5)C=C4)C=C3)cc1` (centres undefined) gave a TGI of more than 100 µM. As for `Cc1cc(S(=O)(=O)Nc2nc(N)n(C)n2)c(S)cc1Cl`, the TGI was more than 10 µM. Still for that read-out and setting: under `Nc1ccc(-c2ccc(-c3nc4ccccc4[nH]3)cc2)cc1` stands 25.7 µM; under `CCOC(=O)c1sc2nc(SC)nc(Nc3ccc(OC)c(OC)c3)c2c1N`, more than 100 µM. `Nc1ncnc2c1ncn2CC(OCP(=O)(O)O)Oc1ccccc1` (centres undefined) had a TGI of more than 100 µM. As to `C=CCSc1nn(CC=C)cc2ncnc1-2`, the TGI is more than 100 µM. Same read-out and setting: under `CC(=O)N1c2ccccc2C23CCN4CC5=CCOC(O)C(C5CC42)C13` (centres undefined) stands more than 100 µM; under `Cc1c2n(c3ccccc13)CC1C2N(C)OC1(C)C` (centres undefined), more than 100 µM; under `Cc1cc2c3c(ccc4ncc(c43)CN2c2ccc(NS(C)(=O)=O)cc2)[nH]1`, 39.9 µM. For the molecule `CC(=O)OC1CC(OC2C(O)CC(OC3C(O)CC(OC4CCC5(C)C(CCC6C5CC(O)C5(C)C(C7=CC(=O)OC7)CCC65O)C4)OC3C)OC2C)OC(C)C1O` (centres undefined) (tested in a mixture with another compound), the TGI was found to be 0.119 µM.

Regarding `CCOC(=O)c1c(C)c2c(n1C)CSc1cc(S(=O)(=O)c3ccccc3)c(=O)[nH]c1-2`, the GI50 was 21.9 µM and the TGI was more than 100 µM. As for `CSC(=S)NN=C1CCCCC1`, the TGI amounted to 53 µM.

In the case of `O=C(NCCNCCO)c1ccc2oc3cc4ccccc4c(=O)n3c2c1`, the GI50 is 13.2 µM and the TGI was 31.4 µM. `CNC(=O)N(CCC#N)CCN(CCN(C(=O)NC)c1ccccc1)C(=O)NC`: the TGI is more than 100 µM. Still for that read-out and setting: under `CC[n+]1[b-](C(C)(C)C)n(/N=C(\C)C(C)(C)C)[b-](C(C)(C)C)[n+]1CC` stands more than 100 µM; under `Cc1ccccc1NC(=O)C(=O)Cc1nc2ccccc2s1`, more than 100 µM. Same read-out and setting: next, `COc1ccc(OC)c(C2CCc3cnc4nc(N)nc(N)c4c3C2)c1` (centres undefined): more than 100 µM; `Cc1sc(N=Nc2c(O)[nH]c3ccccc23)nc1-c1ccccc1`: 42.8 µM; `N/C(=N\C(=S)N1CCCCC1)N1CCCCC1`: more than 100 µM. `O=C(O)C1Cc2nc[nH]c2CN1` (centres undefined): the TGI is more than 100 µM.

Consider `Cc1ccc(NC2=C(Cl)C(=O)c3nc(C)ccc3C2=O)cc1`, for which the GI50 is 3.42 µM and the TGI worked out at 12.7 µM. `CS(=O)(=O)C(=Cc1ccccc1Cl)S(C)(=O)=O`: the TGI was more than 100 µM.

With `CCCCc1ccc(Nc2nc(Cl)c3[nH]cnc3n2)cc1`, the TGI was more than 100 µM.
